Laboratory results: the supplement of paper PMC3334620
The full ranking holds about 33,000 sequences; the median of “E-score (-0.5 to 0.5)” is about -0.041, and the highest 2% start at about 0.37. This is one part of the list.

The sequences below were run against T1, Ecm22 (UniProt Q05958) (assay: PBM E-score (8-mer binding enrichment) (E-score (-0.5 to 0.5)); higher = stronger / more preferred TF binding; most listed sequences are background and not binding sites). Conditions: protein concentration: 200 nM; construct: GST-full length.
T1 sequence: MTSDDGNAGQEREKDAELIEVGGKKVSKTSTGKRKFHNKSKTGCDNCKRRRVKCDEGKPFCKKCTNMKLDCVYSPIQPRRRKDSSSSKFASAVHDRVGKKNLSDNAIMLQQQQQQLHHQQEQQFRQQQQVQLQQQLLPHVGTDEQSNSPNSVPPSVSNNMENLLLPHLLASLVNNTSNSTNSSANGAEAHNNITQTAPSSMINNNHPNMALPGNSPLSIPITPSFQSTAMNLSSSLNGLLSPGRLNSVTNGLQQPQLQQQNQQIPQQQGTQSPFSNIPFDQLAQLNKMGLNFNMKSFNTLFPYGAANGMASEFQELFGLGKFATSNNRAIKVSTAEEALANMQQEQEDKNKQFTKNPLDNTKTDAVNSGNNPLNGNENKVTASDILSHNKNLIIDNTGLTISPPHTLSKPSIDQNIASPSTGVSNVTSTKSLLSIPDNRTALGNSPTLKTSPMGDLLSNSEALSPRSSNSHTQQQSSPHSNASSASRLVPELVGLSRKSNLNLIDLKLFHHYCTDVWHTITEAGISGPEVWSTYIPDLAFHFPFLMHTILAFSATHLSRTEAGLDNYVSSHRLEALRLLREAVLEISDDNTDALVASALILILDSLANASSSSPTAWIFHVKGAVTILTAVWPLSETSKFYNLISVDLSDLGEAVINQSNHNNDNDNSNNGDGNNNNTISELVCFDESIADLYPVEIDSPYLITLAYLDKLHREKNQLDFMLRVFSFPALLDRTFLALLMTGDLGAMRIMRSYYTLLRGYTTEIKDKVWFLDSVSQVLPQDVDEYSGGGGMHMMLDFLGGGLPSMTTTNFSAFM
Method in brief: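 Each ungapped eight-base word and its reverse complement, pooled, received an E-score from the Universal PBM Analysis Suite. Underlying scans, normalised with masliner, recorded fluorescent anti-GST bound to GST-tagged yeast transcription factors. These were applied at about 100-200 nM to universal all-10-mer Agilent arrays double-stranded by primer extension.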

First: TAGTGCCA
Second: CCATACGA
The “PBM E-score” value of the first is lower: -0.21 for the first, 0.462 for the second.

Going from ACAATCTG to ATCAAGTA, the “PBM E-score” value rises from -0.209 to -0.132.

First: TAGTAAAA
Second: AGTATGTA
The “PBM E-score” value of the first is lower: -0.00806 for the first, 0.00181 for the second.

Compared with CGACTGTA, ACACCGGC is lower in “PBM E-score” value: 0.108 for the first, -0.00457 for the second.

Compared with TATCCTAA, AAGCAGTC is higher in “PBM E-score” value: -0.0902 for the first, -0.0879 for the second.

Compared with GTCAATGA, AAAGACTT is higher in “PBM E-score” value: -0.164 for the first, -0.0715 for the second.

Compared with CTGAGATA, ACTGAGCT is lower in “PBM E-score” value: -0.0217 for the first, -0.275 for the second.

Compared with CAAGGCGC, AAAATGCG is higher in “PBM E-score” value: -0.171 for the first, 0.198 for the second.

Going from TAAAGATA to GGGTGCAA, the “PBM E-score” value falls from 0.0588 to -0.11.

Compared with GGGAAAGA, AGCGGCGC is lower in “PBM E-score” value: -0.051 for the first, -0.222 for the second.

Compared with CGACATCA, GGGAGCCA is lower in “PBM E-score” value: 0.231 for the first, -0.244 for the second.

Going from AGATAGTA to GAAGGGTC, the “PBM E-score” value falls from -0.0423 to -0.232.

Going from GCCCTTAA to CATCACAA, the “PBM E-score” value falls from -0.128 to -0.141.

Going from TATCGCCA to CCCGACGG, the “PBM E-score” value rises from -0.0963 to 0.151.

First: ATAAGTTC
Second: TATCGACA
The “PBM E-score” value of the first is lower: 0.0564 for the first, 0.0654 for the second.

Compared with ACAAGTCT, GTGATCCA is lower in “PBM E-score” value: -0.156 for the first, -0.181 for the second.

Compared with GAACTACA, CACTCGTC is higher in “PBM E-score” value: 0.042 for the first, 0.0448 for the second.

Going from AGACATAT to AAAGCCGG, the “PBM E-score” value rises from -0.0669 to 0.0157.

Compared with CTACTCAG, CTAAGGGA is higher in “PBM E-score” value: -0.308 for the first, 0.0248 for the second.

First: TACGTGAA
Second: AATGCCTG
The “PBM E-score” value of the first is higher: 0.242 for the first, -0.0553 for the second.

Compared with AGCGGTCC, CATGCCAC is lower in “PBM E-score” value: 0.105 for the first, -0.102 for the second.

First: AACAAGAG
Second: CTTTCACA
The “PBM E-score” value of the first is lower: -0.016 for the first, 0.00363 for the second.

First: AAAATTAA
Second: GCGGCCTA
The “PBM E-score” value of the first is higher: -0.0928 for the first, -0.19 for the second.

First: AGGAAAAT
Second: ATTACCAC
The “PBM E-score” value of the first is lower: -0.0694 for the first, -0.037 for the second.

Going from AATATATC to GAAGCTTA, the “PBM E-score” value rises from -0.0729 to 0.135.

Going from AACTGACA to GAGACGGC, the “PBM E-score” value rises from -0.0147 to -0.00839.

Going from CGGCACCA to CTATGTAC, the “PBM E-score” value rises from -0.0406 to 0.179.

Going from AACTAATC to GGATCAGA, the “PBM E-score” value falls from 0.0238 to -0.174.

First: AATACCAA
Second: GATTAAGA
The “PBM E-score” value of the first is lower: -0.12 for the first, 0.106 for the second.

Compared with AAGCCATA, ACGCTCCC is lower in “PBM E-score” value: -0.0528 for the first, -0.0885 for the second.

Going from GAACGGTC to TCTTTTCA, the “PBM E-score” value falls from 0.298 to -0.313.

First: AATAGACA
Second: AAATTGCG
The “PBM E-score” value of the first is lower: -0.16 for the first, 0.249 for the second.

Compared with CTCTATGA, AGGAGAAA is lower in “PBM E-score” value: -0.217 for the first, -0.281 for the second.

Going from GACCACTA to GTGTACAA, the “PBM E-score” value rises from -0.136 to 0.0152.

Going from ACCGGAGT to GGCTTTAC, the “PBM E-score” value rises from 0.102 to 0.161.

Going from ACAAGTCC to AGGTTTGG, the “PBM E-score” value rises from -0.254 to -0.0826.

Going from ATCTAGAT to CAGTGCCA, the “PBM E-score” value falls from 0.0119 to -0.0561.

Compared with ATGAACTC, ATCAGTCA is higher in “PBM E-score” value: -0.123 for the first, 0.00779 for the second.

First: CTCTTAGC
Second: GAATAACA
The “PBM E-score” value of the first is lower: -0.0299 for the first, 0.0805 for the second.

Going from CTTATAAA to CGCAAACA, the “PBM E-score” value rises from 0.0194 to 0.119.

Going from CTCCTGTA to CAAATAGC, the “PBM E-score” value falls from -0.121 to -0.131.

Compared with CAGTGGCC, CCCCTTGC is lower in “PBM E-score” value: -0.205 for the first, -0.239 for the second.

Compared with ACGACCGC, ACTAGTTA is lower in “PBM E-score” value: 0.338 for the first, -0.0126 for the second.

Going from ACGGAACG to CCTAATAC, the “PBM E-score” value falls from 0.442 to -0.0913.

First: ATGGCTGC
Second: GTCTAGTA
The “PBM E-score” value of the first is lower: -0.0911 for the first, 0.0206 for the second.

Going from TCAGAAGA to AATCAGAC, the “PBM E-score” value rises from -0.137 to -0.0272.

Going from CAGAGCTG to AGTCATAA, the “PBM E-score” value rises from -0.234 to -0.0737.
